The supplement of paper PMC7125110
± gives the standard error. Variants at the background level are over-represented here.

B1: glmS ribozyme (parent)
chain: AUAAAAGCGCCAGAACUACAGAAAUGUAGUUGACGAGGAGGAGGUUUAUCGAAUUUUCGGCGGAUGCCUCCAAA

How the values were obtained:
Conditions in all cases: with glucosamine-6-phosphate
[1] = variants of: B1; experiment: self-cleavage kobs at 40 uM GlcN6P; higher = faster cleavage; RNA array
Outline: (§1)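 E. coli RNA polymerase transcribed barcoded ribozyme variants in situ on sequenced MiSeq chips, which were tracked via a hybridised Cy3 probe at 37 °C. Tiles were imaged over ~14 h after glucosamine-6-phosphate (40 μM to 10 mM) in HEPES/KCl/Mg(OAc)2 buffer was flowed in. Normalised per-tile medians were fit to one- or two-exponential decays for kobs, and kcat and KM came from weighted Michaelis–Menten fits.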

[2] = variants of: B1; experiment: self-cleavage kobs at 2500 uM GlcN6P; higher = faster cleavage; RNA array
Outline: as §1

[3] = variants of: B1; experiment: self-cleavage kobs at 10000 uM GlcN6P; higher = faster cleavage; RNA array
Outline: as §1

[4] = variants of: B1; experiment: self-cleavage kobs at 640 uM GlcN6P; higher = faster cleavage; RNA array
Outline: as §1

[5] = variants of: B1; experiment: self-cleavage kobs at 160 uM GlcN6P; higher = faster cleavage; RNA array
Outline: as §1

Variant	self-cleavage kobs at 40 uM GlcN6P [1] [s⁻¹]	self-cleavage kobs at 2500 uM GlcN6P [2] [s⁻¹]	self-cleavage kobs at 10000 uM GlcN6P [3] [s⁻¹]	self-cleavage kobs at 640 uM GlcN6P [4] [s⁻¹]	self-cleavage kobs at 160 uM GlcN6P [5] [s⁻¹]
C8G G13A G35C G51A	< 1e-05	< 1e-05	< 1e-05	–	–
C8G C34U U56G	< 1e-05	–	< 1e-05	< 1e-05	–
C8G A33G	< 1e-05	< 1e-05	< 1e-05	< 1e-05	< 1e-05
C8G G51C	< 1e-05	–	< 1e-05	< 1e-05	–
G9A A33G G62U	< 1e-05	–	< 1e-05	–	–
G9A C58G	< 1e-05	–	–	–	–
G9A C34G A42G C50A	< 1e-05	< 1e-05	< 1e-05	–	–
C8A G35C A53C C67G	< 1e-05	–	–	–	–
C8U G32A G41U	< 1e-05	< 1e-05	< 1e-05	< 1e-05	< 1e-05
C8U A53G	< 1e-05	< 1e-05	< 1e-05	< 1e-05	–
G9A A39G A42C	< 1e-05	–	–	–	–
C8A G37C G62U	< 1e-05	–	< 1e-05	< 1e-05	–
C8U U46G	< 1e-05	–	< 1e-05	< 1e-05	< 1e-05
C8U G63C	< 1e-05	< 1e-05	< 1e-05	< 1e-05	< 1e-05
G9A U54A	< 1e-05	–	–	< 1e-05	–
G9A A14C G37C G38U U49C U69A	< 1e-05	–	–	–	–
C8G U47G U49G	< 1e-05	–	–	–	–
C8G G13C U31G G32A G66U	< 1e-05	< 1e-05	< 1e-05	–	–
C8G A14U A42G C70G	< 1e-05	–	< 1e-05	–	–
C8U G13C G51A	< 1e-05	–	–	–	–
C8U G62U	< 1e-05	< 1e-05	–	< 1e-05	–
C8G C16A G51C C61U C68U	< 1e-05	–	–	< 1e-05	–
G9A C34G U46C C61U G62U	< 1e-05	–	–	–	–

Variant	self-cleavage kobs at 40 uM GlcN6P [1] [s⁻¹]	self-cleavage kobs at 2500 uM GlcN6P [2] [s⁻¹]	self-cleavage kobs at 10000 uM GlcN6P [3] [s⁻¹]	self-cleavage kobs at 640 uM GlcN6P [4] [s⁻¹]	self-cleavage kobs at 160 uM GlcN6P [5] [s⁻¹]
C8A G41U C50G	< 1e-05	–	–	–	–
C8U U54C	< 1e-05	< 1e-05	< 1e-05	< 1e-05	–
C8A G59U	< 1e-05	–	< 1e-05	< 1e-05	< 1e-05
C8A G9A G37C A42C A53G	< 1e-05	< 1e-05	< 1e-05	–	–
C8G A14G	< 1e-05	< 1e-05	< 1e-05	< 1e-05	< 1e-05
C8G A14U	< 1e-05	–	< 1e-05	< 1e-05	< 1e-05
C8A C34U	< 1e-05	< 1e-05	< 1e-05	< 1e-05	< 1e-05
C8G U30C	< 1e-05	< 1e-05	< 1e-05	–	–
C8G A15U U30A U47G	< 1e-05	< 1e-05	–	< 1e-05	–
C8G C50G C67A	0.000144 ± 2.5e-05	–	0.000113 ± 1.8e-05	–	–
G9A U31G A39G A48C G60C	< 1e-05	–	–	–	–
C8U G40A	< 1e-05	< 1e-05	< 1e-05	< 1e-05	< 1e-05
C8A U31C C34U A39C U57A	< 1e-05	–	< 1e-05	–	–
C8U G41A A64G	< 1e-05	–	< 1e-05	–	–
C8A C34G A64U	< 1e-05	–	< 1e-05	–	–
G9C A52C	< 1e-05	< 1e-05	–	< 1e-05	< 1e-05
C8U G13U A14G C16A A48C C71G	< 1e-05	–	–	–	–
C8U U45A	< 1e-05	< 1e-05	< 1e-05	< 1e-05	< 1e-05
C8U U45G	< 1e-05	< 1e-05	–	< 1e-05	< 1e-05
C8U C70U	< 1e-05	–	–	–	< 1e-05
G9C C67G	< 1e-05	< 1e-05	< 1e-05	< 1e-05	< 1e-05
C8G G32C G40U	< 1e-05	< 1e-05	< 1e-05	–	–
C8U A15U U30G G35C G41U	< 1e-05	< 1e-05	–	< 1e-05	–

Variant	self-cleavage kobs at 40 uM GlcN6P [1] [s⁻¹]	self-cleavage kobs at 2500 uM GlcN6P [2] [s⁻¹]	self-cleavage kobs at 10000 uM GlcN6P [3] [s⁻¹]	self-cleavage kobs at 640 uM GlcN6P [4] [s⁻¹]	self-cleavage kobs at 160 uM GlcN6P [5] [s⁻¹]
C8U G41A A42U G59A	< 1e-05	–	–	–	–
C8G A36U G38C C58A	< 1e-05	–	–	< 1e-05	–
C8G G32A	< 1e-05	< 1e-05	< 1e-05	< 1e-05	< 1e-05
C8G G32C	< 1e-05	< 1e-05	–	–	< 1e-05
G9A C11G A53G	< 1e-05	–	–	–	–
C8G G13C	< 1e-05	< 1e-05	< 1e-05	< 1e-05	< 1e-05
G9A A33C	< 1e-05	–	–	< 1e-05	< 1e-05
C8G C61U	< 1e-05	< 1e-05	< 1e-05	< 1e-05	< 1e-05
C8G U47A G62C	< 1e-05	–	–	–	–
C8G U55C	< 1e-05	–	–	–	–
G9A A36G	< 1e-05	< 1e-05	< 1e-05	–	< 1e-05
G9C A14U	< 1e-05	< 1e-05	< 1e-05	< 1e-05	< 1e-05
G9C A14C	< 1e-05	–	–	–	< 1e-05
C8G A48G U54A	< 1e-05	< 1e-05	< 1e-05	–	–
G9A G13U C50G U57A	0.000665 ± 0.00023	–	9.79e-05 ± 2e-05	–	–
G9C A15C	< 1e-05	–	< 1e-05	–	< 1e-05
C8U U31C	< 1e-05	–	< 1e-05	< 1e-05	< 1e-05
C8G G13U G51C A64G	< 1e-05	–	–	–	–
G9A C10U A36U U54A	< 1e-05	–	–	–	–
G9A A42G G43U C61A	< 1e-05	–	–	< 1e-05	–
C8U G35U A42U C50U	< 1e-05	–	–	–	–
C8G C11G U30C C34G G44U G62A	< 1e-05	–	–	–	–
C8G C67A	< 1e-05	< 1e-05	< 1e-05	< 1e-05	< 1e-05

Variant	self-cleavage kobs at 40 uM GlcN6P [1] [s⁻¹]	self-cleavage kobs at 2500 uM GlcN6P [2] [s⁻¹]	self-cleavage kobs at 10000 uM GlcN6P [3] [s⁻¹]	self-cleavage kobs at 640 uM GlcN6P [4] [s⁻¹]	self-cleavage kobs at 160 uM GlcN6P [5] [s⁻¹]
C8U C11G	< 1e-05	< 1e-05	< 1e-05	< 1e-05	< 1e-05
C8U U65A	< 1e-05	< 1e-05	–	< 1e-05	< 1e-05
C8A U46G G60A C67G	< 1e-05	–	–	< 1e-05	< 1e-05
G9C A14G A39G C67U	< 1e-05	< 1e-05	–	< 1e-05	< 1e-05
C8G G43U U65A C71G	< 1e-05	–	–	–	–
C8U C11U A12C A48G G62A C67U	< 1e-05	< 1e-05	< 1e-05	–	–
C8G U57A	< 1e-05	< 1e-05	< 1e-05	< 1e-05	–
C8G A48U	< 1e-05	< 1e-05	< 1e-05	< 1e-05	< 1e-05
C8U G35C A42G G43C C71G	< 1e-05	–	< 1e-05	–	–
C8G G51U A64G	< 1e-05	–	–	–	–
C8A A64G	< 1e-05	< 1e-05	< 1e-05	< 1e-05	< 1e-05
G9A A48C	< 1e-05	< 1e-05	< 1e-05	< 1e-05	< 1e-05
C8G U47A C70G	< 1e-05	< 1e-05	< 1e-05	< 1e-05	< 1e-05
C8A C71U	< 1e-05	< 1e-05	< 1e-05	< 1e-05	< 1e-05
C8G C16U U55G A64U	< 1e-05	–	< 1e-05	–	–
C8A G44A U69G	< 1e-05	–	< 1e-05	–	–
C8U G44C	< 1e-05	< 1e-05	–	< 1e-05	< 1e-05
C8G A12C A15G U30G G38A U46C	< 1e-05	–	–	–	–
G9A G29U	< 1e-05	< 1e-05	–	< 1e-05	< 1e-05
G9A G40U	< 1e-05	< 1e-05	< 1e-05	< 1e-05	< 1e-05
C8U C16G A36G	< 1e-05	–	< 1e-05	–	–
C8G A12U G37A G44U	< 1e-05	–	< 1e-05	–	–
C8U A36C C67U	< 1e-05	–	–	–	–
